“And” between values parts separate entries of the source, which are not always exact repeats. Identical values can stand only once. The inconclusive results got no clear call from the source; some entries with a clear call stand among them for comparison. Potencies beside an inconclusive call are fits to weak or partial responses and may not hold up. Where a structure was tested more than once in an assay, its records may differ in their call. The source made the active and inactive calls. Calls come from the whole dose curve; as a rule, active = well fitted cell-killing curve with a large enough effect in the repeat runs; inconclusive = weak or mixed curves, or effect the other way; inactive = flat fitted curve, though single readings scatter.
Test: qHTS RealTime-Glo MT Cell Viability Assay in HEK293 cells - 24 hour (AID 1224886); for activity change, negative = cytotoxicity: top concentration of the series differs between compounds
Details: RealTime-Glo luminescence; series mostly up to 76.8 µM; activity change, negative = cytotoxicity: at the top concentration
Summary of the method: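 Cells + reagent dispensed (600 cells/well, HEK293) → 5 h at 37 C/5% CO2 → 23 nL compound in DMSO pinned → 40 h at 37 C → luminescence read at 0, 8, 16, 24, 32, 40 h.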
% is set by controls: 0 for no effect and ±100 for the full control effect; potency is the fitted concentration of half-maximal effect; tags give direction and shape of the fitted curve.
Note: nearly all actives have a fitted effect of over 50% in size.

Structure (SMILES)	activity change, negative = cytotoxicity	Potency
CC(=O)OC/C=C(/C)CCC=C(C)C	inactive: 6.76%	
C=C[C@H]1CN2CC[C@H]1C[C@@H]2[C@@H](O)c1ccnc2ccc(OC)cc12		active: 48.2 µM and inconclusive: 26.8 µM [cytotoxic, single point]
CCCCCCCCS(=O)C(C)Cc1ccc2c(c1)OCO2 (centres undefined)		inconclusive: 56 µM [cytotoxic, single point]
C[N+](C)(C)CC[N+]1(C)Cc2c(Cl)c(Cl)c(Cl)c(Cl)c2C1	inactive: 6.6% [at 35.3 µM]	
CCc1cc(Cl)c(OC)c(C(=O)NC[C@@H]2CCCN2CC)c1O	inactive: -10.4% [at 35.3 µM]	
S=c1nc[nH]c2nc[nH]c12		active: 19 µM and inconclusive: 26.8 µM [cytotoxic, single point]
C[Si]1(C)O[Si](C)(C)O[Si](C)(C)O[Si](C)(C)O[Si](C)(C)O1	inactive: 20.2%	
CC(=O)[C@H]1CC[C@H]2[C@@H]3CC=C4C[C@@H](O)CC[C@]4(C)[C@H]3CC[C@]12C		inconclusive: 11 µM [cytotoxic, partial curve, poor fit]
O=C(Nc1cccc([N+](=O)[O-])c1)c1cc2ccccc2cc1O		inconclusive: 4.36 µM [cytotoxic, full curve]
O=C(CCS)OCC(COC(=O)CCS)(COC(=O)CCS)COC(=O)CCS		inconclusive: 54.9 µM [cytotoxic, partial curve, poor fit]
O=C(NOCC1CC1)c1ccc(F)c(F)c1Nc1ccc(I)cc1Cl		inconclusive: 21.3 µM [cytotoxic, partial curve]
COC(=O)C(C)Oc1ccc(Oc2ncc(C(F)(F)F)cc2Cl)cc1 (centres undefined)		inconclusive: 22.2 µM [cytotoxic, partial curve] and inconclusive: 38.9 µM [cytotoxic, partial curve, poor fit]
C=CC/C=C/C	inactive: 0.156%	
Cc1cccc([N+](=O)[O-])c1C		inactive
COC(=O)c1ccccc1		active: 12.3 µM
CN1CCCN=C1COC(=O)C(O)(c1ccccc1)C1CCCCC1 (centres undefined)		inconclusive: 26.8 µM [cytotoxic, partial curve, poor fit]
CCN(C(=O)N(CC)c1ccccc1)c1ccccc1		inconclusive: 43.6 µM [cytotoxic, partial curve]
NC(=O)c1ccccc1O		inactive
Nc1nc2ccccc2[nH]1		inactive
O=C(CC(=O)c1ccccc1)c1ccccc1	inactive: -9.01%	
Cc1cc(C2CCCCC2)n(O)c(=O)c1		inconclusive: 1.9 µM [cytotoxic, full curve]
CNCC(O)c1ccc(O)c(O)c1 (centres undefined)	inactive: 3.45% [at 35.3 µM]	
Oc1ccc(Sc2ccc(O)cc2)cc1		inconclusive: 25.7 µM [cytotoxic, partial curve]
Cc1c(OCC(F)(F)F)ccnc1CS(=O)c1nc2ccccc2[nH]1 (centres undefined)		active: 19.5 µM and active: 19 µM
CC(C)(C(=O)c1cccnc1)c1cccnc1	inactive: 1.69% [at 35.3 µM]	
Cc1ccc2c(Br)cc(Br)c(O)c2n1		inconclusive: 21.3 µM [cytotoxic, single point]
CC(=O)N/N=C/c1ccc([N+](=O)[O-])o1		inconclusive: 23.9 µM [rising, partial curve, poor fit]

Test: qHTS RealTime-Glo MT Cell Viability Assay in HEK293 cells - 8 hour (AID 1224887); for activity change, negative = cytotoxicity: top concentration of the series differs between compounds
Details: RealTime-Glo luminescence; series mostly up to 76.8 µM; activity change, negative = cytotoxicity: at the top concentration
Summary of the method: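 600 HEK293 cells per well, dispensed already mixed with RealTime-Glo MT reagents. Compound dosing came 5 h later. The same wells were read for luminescence at 0, 8, 16, 24, 32 and 40 h of exposure at 37 C.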

Structure (SMILES)	Potency	activity change, negative = cytotoxicity
Cc1cc(O)c(C)c(C)c1O	inconclusive: 26.8 µM [cytotoxic, single point]	
Brc1cc2ccccc2c2ccccc12	inconclusive: 55.4 µM [cytotoxic, partial curve, poor fit]	
O=C1c2cccc(O)c2C(=O)c2c(O)cccc21	inconclusive: 15.6 µM [rising, partial curve] and inconclusive: 19 µM [rising, partial curve]	
Nc1ccccc1O	inconclusive: 48.3 µM [cytotoxic, partial curve, poor fit]	
COC(=O)/C=C/c1ccccc1	inconclusive: 54.9 µM [rising, single point]	
CC(COCC(C)OC(=O)c1ccccc1)OC(=O)c1ccccc1 (centres undefined)	inconclusive: 43.3 µM [cytotoxic, partial curve] and inconclusive: 38.9 µM [cytotoxic, partial curve]	
CC(=O)CC(=O)Nc1ccc(S(=O)(=O)O)cc1		inactive: 24%
CCCCCCOc1ccccc1C(N)=O	inconclusive: 19 µM [cytotoxic, partial curve]	
CCCCCCCCS(=O)C(C)Cc1ccc2c(c1)OCO2 (centres undefined)	inconclusive: 62.9 µM [cytotoxic, single point]	
O=C(CCS)OCC(COC(=O)CCS)(COC(=O)CCS)COC(=O)CCS	inconclusive: 54.9 µM [cytotoxic, partial curve, poor fit]	
O=C(NOCC1CC1)c1ccc(F)c(F)c1Nc1ccc(I)cc1Cl	inconclusive: 19 µM [cytotoxic, partial curve, poor fit]	
COC(=O)C(C)Oc1ccc(Oc2ncc(C(F)(F)F)cc2Cl)cc1 (centres undefined)	inconclusive: 24.9 µM [cytotoxic, full curve] and inconclusive: 34.7 µM [cytotoxic, partial curve]	
CCN(C(=O)N(CC)c1ccccc1)c1ccccc1	inconclusive: 43.6 µM [cytotoxic, partial curve, poor fit]	
Cc1cc(C2CCCCC2)n(O)c(=O)c1	inconclusive: 26.8 µM [cytotoxic, partial curve, poor fit]	
Oc1ccc(Sc2ccc(O)cc2)cc1	inconclusive: 22.9 µM [cytotoxic, partial curve]	
Cc1c(OCC(F)(F)F)ccnc1CS(=O)c1nc2ccccc2[nH]1 (centres undefined)	active: 21.9 µM and active: 23.9 µM	
Cc1ccc2c(Br)cc(Br)c(O)c2n1		inactive: -15.8% [at 35.3 µM]

Reference: PubChem BioAssay (Tox21)
